# Assay results taken from patent US5885962, “Stem cell factor analog compositions and method” (Amgen Inc., dated 1999).
# B1: SCF met […] (recombinant human met-1 SCF […], wild type) (ligand)
# chain: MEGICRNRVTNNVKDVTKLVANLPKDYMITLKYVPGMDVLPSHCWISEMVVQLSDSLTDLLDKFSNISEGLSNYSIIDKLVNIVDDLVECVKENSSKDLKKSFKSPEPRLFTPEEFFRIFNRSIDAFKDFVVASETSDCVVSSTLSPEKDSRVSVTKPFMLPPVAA
# B2: SCF met […] N10D (ligand)
# chain: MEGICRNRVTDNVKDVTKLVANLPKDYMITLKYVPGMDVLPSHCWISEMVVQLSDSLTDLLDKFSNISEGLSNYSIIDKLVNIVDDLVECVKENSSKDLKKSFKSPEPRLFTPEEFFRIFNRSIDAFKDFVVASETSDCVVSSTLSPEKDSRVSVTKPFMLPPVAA
# B3: SCF met […] N10D, N11D (ligand)
# chain: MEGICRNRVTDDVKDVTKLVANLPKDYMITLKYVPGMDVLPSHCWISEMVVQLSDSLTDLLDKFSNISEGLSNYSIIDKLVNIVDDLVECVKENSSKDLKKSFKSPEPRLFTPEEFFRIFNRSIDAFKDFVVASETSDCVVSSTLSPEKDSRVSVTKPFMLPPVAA
# B4: rhSCF homodimer with isoaspartic acid in place of asparagine at position 10 (ligand)
# chain: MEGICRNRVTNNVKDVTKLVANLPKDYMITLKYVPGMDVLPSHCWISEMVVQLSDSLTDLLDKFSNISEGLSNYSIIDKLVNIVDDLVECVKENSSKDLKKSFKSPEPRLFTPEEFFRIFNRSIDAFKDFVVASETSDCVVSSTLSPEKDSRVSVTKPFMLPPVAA
# modifications: isoaspartic acid in place of asparagine at position 10 (mature numbering, Met at -1)
# Experiments:
# [1] = molecular target: T1, SCF receptor (the c-kit receptor) (Homo sapiens (Human), UniProt P10721); assay: cell-based or functional assay
# [2] = molecular target: T1, SCF receptor (the c-kit receptor); assay: cell-based or functional assay; remark: listed apart in the source
Binder,"% activity, UT-7 bioassay [1] [%]","Half Maximal stimulation concentration (ng/ml), UT-7 bioassay, 3H-thymidine uptake [1] [ng/mL]",Cell proliferation assays [2] [fold less potent]
B1,100,5.4,–
B2,154,3.5,–
B3,160,3.2,–
B4,–,–,50
